Measurements as given in the supplement of paper PMC10126150.
Sequences with one replicate were seen in a single cluster, so their values are uncertain.

Tested on: ATP
Experiment: switch fluorescence ratio, 500 uM ATP over buffer (Cy3 cluster intensity, sum of 5 cycles each) (fold (ratio)); higher = stronger signal-on switching upon ATP binding; sequences stand for … in TCGTCGGCAGCGTCAGATGTGTATAAGAGACAGTTTTTTTTTTTTTTTTTTTTTTTTT…TC
Details: aptamer strand: ATP DNA aptamer (quencher-CACCTGGGGGAGTATTGCGGAGGAAGG + anchor), 100 nM annealed; ATP concentration: 500 uM; one replicate
Procedure, shortened: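 The fluorescence ratio divides summed target-cycle Cy3 intensity by summed buffer-cycle Cy3 intensity for each cluster and is averaged per switch-domain sequence. Cy3-labelled switching-strand clusters on a modified Illumina MiSeq flow-cell were annealed to 100 nM quencher-labelled ATP aptamer, then imaged in selection buffer and again after 15 min with 500 uM ATP at 22 °C. Five such cycles were run, with NaOH stripping and re-annealing between them, and clusters outside 100-1000 RFU were excluded.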
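Further: ATP exposure 15 min at 22 °C before imaging.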

Row | Sequence | switch fluorescence ratio
1 | ATACTAGATG | 1.03
2 | ATACTAGATT | 0.985
3 | ATACTATTTA | 0.966
4 | ATACTCGCAA | 5.66
5 | ATACTGAGCG | 1.03
6 | ATACTTATGC | 1.15
7 | ATAGAATGAG | 1.05
8 | ATAGAATGTT | 1.02
9 | ATAGACACCT | 1.2
10 | ATAGACTGAA | 1.02
11 | ATAGAGCGTT | 1.02
12 | ATAGAGGATG | 1
13 | ATAGAGGGCT | 0.985
14 | ATAGAGGTCG | 1.07
15 | ATAGAGGTTT | 0.987
16 | ATAGATATG | 1.01
17 | ATAGATTGA | 0.972
18 | ATAGCAGATA | 1.04
19 | ATAGCCAGAA | 0.963
20 | ATAGCCCTGT | 0.961
21 | ATAGCCGCAC | 1.72
22 | ATAGCGGATG | 1
23 | ATAGCGGCAA | 1.23
24 | ATAGCGTCGG | 0.96
25 | ATAGCGTTT | 0.978
26 | ATAGGAAGGC | 1.02

Row | Sequence | switch fluorescence ratio
27 | ATAGGACAGA | 1.03
28 | ATAGGACTTC | 1
29 | ATAGGCGCGA | 0.957
30 | ATAGGCGTCA | 0.99
31 | ATAGGGGCT | 0.995
32 | ATAGGGGCTG | 1.08
33 | ATAGGTAAAA | 1.11
34 | ATAGGTAGCC | 0.988
35 | ATAGGTGAAT | 0.982
36 | ATAGTAGACT | 1.02
37 | ATAGTATGAA | 1.04
38 | ATAGTCAGGC | 1.06
39 | ATAGTCGGTG | 1.02
40 | ATAGTGCGTC | 1.06
41 | ATAGTTACCG | 1.09
42 | ATAGTTAGAG | 0.99
43 | ATAGTTCTTA | 0.98
44 | ATAGTTGCCA | 0.982
45 | ATAGTTTTC | 0.967
46 | ATATAAAAAC | 1.02
47 | ATATAACTAA | 0.976
48 | ATATAACTCA | 0.989
49 | ATATAATTTC | 1.01
50 | ATATACACCA | 1.18
51 | ATATACTGTA | 1.16
52 | ATATAGATTC | 1.05

Row | Sequence | switch fluorescence ratio
53 | ATATAGTGGG | 0.976
54 | ATATATACC | 1.05
55 | ATATATATGT | 1.04
56 | ATATATCAGT | 1.03
57 | ATATATCCCG | 0.976
58 | ATATATTAAG | 0.995
59 | ATATATTT | 0.958
60 | ATATCAGGC | 1
61 | ATATCATCTG | 1.02
62 | ATATCATTCG | 1
63 | ATATCCGAAG | 1.1
64 | ATATCCGGCC | 1.06
65 | ATATCGGCTC | 0.95
66 | ATATGCGTC | 0.976
67 | ATATGGAACT | 1.05
68 | ATATGGGGTC | 1.04
69 | ATATGGGTAG | 0.967
70 | ATATGGGTGA | 1.03
71 | ATATGGTG | 0.988
72 | ATATGTACTC | 1.1
73 | ATATGTCGGG | 0.977
74 | ATATGTCGTG | 0.953
75 | ATATGTGCGG | 1.06
76 | ATATGTGTCT | 0.956
77 | ATATGTTATT | 1.03
78 | ATATTACATG | 1.02

Row | Sequence | switch fluorescence ratio
79 | ATATTAGCTA | 1
80 | ATATTCGTAT | 0.992
81 | ATATTGAGAG | 1.04
82 | ATATTGCGTG | 1.02
83 | ATATTGCTAT | 0.967
84 | ATATTTCTCT | 0.968
85 | ATATTTTAAA | 0.991
86 | ATATTTTCGT | 0.974
87 | ATCAAATACG | 1.04
88 | ATCAAATTAG | 0.989
89 | ATCAACATGC | 1.06
90 | ATCAACTAAG | 0.974
91 | ATCAAGCACA | 1.31
92 | ATCAAGTTGC | 0.984
93 | ATCACACACG | 1.43
94 | ATCACCGTGT | 1.05
95 | ATCACCTTAA | 1.08
96 | ATCACGGGGC | 0.95
97 | ATCACGGGGT | 0.998
98 | ATCACGTGAC | 1.2
99 | ATCACTACT | 1.05
100 | ATCACTCATA | 1.02
101 | ATCAGAACGA | 1.03
102 | ATCAGAGATT | 1.03
103 | ATCAGAGG | 1.01
104 | ATCAGAGTTC | 0.988

Row | Sequence | switch fluorescence ratio
105 | ATCAGCACCC | 1.11
106 | ATCAGCGGGA | 1
107 | ATCAGCTGCG | 1.01
108 | ATCAGCTGGG | 1.02
109 | ATCAGGCTGG | 0.95
110 | ATCAGGGTCC | 1.04
111 | ATCAGGGTTC | 0.97
112 | ATCAGTGGAC | 1.02
113 | ATCAGTGGGT | 1.01
114 | ATCAGTTGCA | 1.02
115 | ATCAGTTGCC | 0.977
116 | ATCAGTTGTA | 0.986
117 | ATCATATTAC | 1.02
118 | ATCATCCAAA | 1
119 | ATCATGGGTG | 1.11
120 | ATCATGTCTG | 1.02
121 | ATCCATTGGT | 0.977
122 | ATCCCAGAAG | 1.04
123 | ATCCCATTTC | 1.04
124 | ATCCCCGGGA | 1.03
125 | ATCCCGTGGC | 0.969
126 | ATCCCGTTGG | 1.03
127 | ATCCCTGGAC | 1.06
128 | ATCCCTTATT | 1.03
129 | ATCCGGCCTA | 1.1
130 | ATCCGGCTTG | 0.951

Row | Sequence | switch fluorescence ratio
131 | ATCCGGGGCT | 1.03
132 | ATCCGGTAGC | 1.43
133 | ATCCGTGTTG | 0.995
134 | ATCCTACAAC | 1.04
135 | ATCCTCAAAA | 1.92
136 | ATCCTCGAGA | 1.03
137 | ATCCTCTATT | 1.05
138 | ATCCTGGGTA | 0.998
139 | ATCCTGTCAC | 1.08
140 | ATCCTGTTAG | 1.02
141 | ATCCTTAATA | 1.01
142 | ATCCTTACCG | 1.19
143 | ATCCTTCTGT | 1.06
144 | ATCGAATACG | 1.02
145 | ATCGAATAT | 1
146 | ATCGACAGAG | 1.04
147 | ATCGACGTGC | 1.08
148 | ATCGAGCATC | 1.07
149 | ATCGAGGCTT | 1
150 | ATCGATCTTG | 1.05
151 | ATCGATGGCT | 0.977
152 | ATCGCCGACT | 1.01
153 | ATCGCGCGGG | 1.01
154 | ATCGCGTGCA | 0.994
155 | ATCGCTTTGA | 0.998
156 | ATCGGACTG | 1.06

Row | Sequence | switch fluorescence ratio
157 | ATCGGATGT | 0.969
158 | ATCGGCGTGC | 0.972
159 | ATCGGCTACG | 1.03
160 | ATCGGCTATG | 1
161 | ATCGGGAACG | 0.99
162 | ATCGGGCTGA | 1.01
163 | ATCGGGTATA | 0.981
164 | ATCGGTCGGA | 0.968
165 | ATCGGTGCGA | 0.969
166 | ATCGGTTTTC | 1.07
167 | ATCGTACTCG | 1.04
168 | ATCGTATAGC | 1.02
169 | ATCGTATGAC | 1.11
170 | ATCGTATTGA | 0.937
171 | ATCGTCAATT | 0.964
172 | ATCGTCGGGT | 0.97
173 | ATCGTCGTCG | 0.994
174 | ATCGTGCAAG | 0.99
175 | ATCGTGCTGT | 1.02
176 | ATCGTTTCAC | 0.973
177 | ATCGTTTTCG | 0.949
178 | ATCGTTTTTG | 0.96
179 | ATCTAAAAAT | 0.985
180 | ATCTAATGAG | 0.993
181 | ATCTAGCGCG | 1.06
182 | ATCTATACAC | 1

Row | Sequence | switch fluorescence ratio
183 | ATCTATCTAC | 1.06
184 | ATCTCATATA | 1.03
185 | ATCTCATGCT | 0.988
186 | ATCTCCTCGC | 1.73
187 | ATCTCGAGCG | 0.993
188 | ATCTCGCAA | 5.53
189 | ATCTCGTATG | 1.06
190 | ATCTGACCCG | 1.14
191 | ATCTGATCAG | 1.05
192 | ATCTGCGAGT | 1
193 | ATCTGGAAC | 1.05
194 | ATCTGGAGTC | 1.01
195 | ATCTGGGGCT | 0.975
196 | ATCTGTGCCG | 0.952
197 | ATCTTACCTT | 1.17
198 | ATCTTACGG | 1.01
199 | ATCTTCTGGG | 0.997
200 | ATCTTGGGGG | 1.08
201 | ATCTTGGGTC | 0.976
